# The list shows a part of the results.
# How the values were obtained:
# Assay in all cases: glycan array binding signal (z-score within array); higher = stronger binding
# Conditions in all cases: glycan notation: IUPAC condensed, linker removed
# [1] = target: Neu5Ac(a2-6)Gal(b1-4)GlcNAc(b1-3)Gal(b1-4)GlcNAc(b1-3)GalNAc
# In short: (§1)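 Columns mapping to the same glycan were averaged after glycan names were converted to IUPAC-condensed notation. The data come from 3228 arrays in the Consortium for Functional Glycomics database, limited to those with an available protein sequence. Binding is reported as a within-array Z-score averaged across arrays of one protein sequence and across linkers.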
# [2] = target: Neu5Ac(a2-6)Gal(b1-4)GlcNAc(b1-3)Gal(b1-4)GlcNAc(b1-3)[Neu5Ac(a2-6)Gal(b1-4)GlcNAc(b1-3)Gal(b1-4)GlcNAc(b1-6)]GalNAc
# In short: as §1
# [3] = target: Neu5Ac(a2-6)Gal(b1-4)GlcNAc(b1-3)Gal(b1-4)GlcNAc(b1-6)[Gal(b1-3)]GalNAc
# In short: as §1
# [4] = target: Neu5Ac(a2-6)Gal(b1-4)GlcNAc(b1-3)Gal(b1-4)[Fuc(a1-3)]GlcNAc(b1-3)Gal(b1-4)[Fuc(a1-3)]GlcNAc
# In short: as §1
# [5] = target: Neu5Ac(a2-6)Gal(b1-4)GlcNAc(b1-3)GalNAc
# In short: as §1
# [6] = target: Neu5Ac(a2-6)Gal(b1-4)GlcNAc(b1-3)[Neu5Ac(a2-6)Gal(b1-4)GlcNAc(b1-6)]GalNAc
# In short: as §1
# [7] = target: Neu5Ac(a2-6)Gal(b1-4)GlcNAc(b1-6)GalNAc
# In short: as §1
# [8] = target: Neu5Ac(a2-6)Gal(b1-4)GlcNAc(b1-6)[Gal(b1-3)GlcNAc(b1-3)]Gal(b1-4)Glc
# In short: as §1
# [9] = target: Neu5Ac(a2-6)Gal(b1-4)GlcNAc(b1-6)[Gal(b1-3)]GalNAc
# In short: as §1
# [10] = target: Neu5Ac(a2-6)Gal(b1-4)GlcNAc6S
# In short: as §1
# [11] = target: Neu5Ac(a2-6)GalNAc
# In short: as §1
# [12] = target: Neu5Ac(a2-6)GalNAc(b1-4)GlcNAc
# In short: as §1
# [13] = target: Neu5Ac(a2-6)GalNAc(b1-4)GlcNAc6S
# In short: as §1
# [14] = target: Neu5Ac(a2-6)GlcNAc(b1-4)GlcNAc
# In short: as §1
# [15] = target: Neu5Ac(a2-6)GlcNAc(b1-4)GlcNAc(b1-4)GlcNAc
# In short: as §1
# [16] = target: Neu5Ac(a2-8)Neu5Ac
# In short: as §1
# [17] = target: Neu5Ac(a2-8)Neu5Ac(a2-3)Gal(b1-3)GalNAc(b1-4)[Neu5Ac(a2-3)]Gal(b1-4)Glc
# In short: as §1
# [18] = target: Neu5Ac(a2-8)Neu5Ac(a2-3)Gal(b1-3)GalNAc(b1-4)[Neu5Ac(a2-8)Neu5Ac(a2-3)]Gal(b1-4)Glc
# In short: as §1
# [19] = target: Neu5Ac(a2-8)Neu5Ac(a2-3)Gal(b1-4)Glc
# In short: as §1
# [20] = target: Neu5Ac(a2-8)Neu5Ac(a2-3)Gal(b1-4)GlcNAc
# In short: as §1
# [21] = target: Neu5Ac(a2-8)Neu5Ac(a2-3)[Gal(b1-3)GalNAc(b1-4)]Gal(b1-4)Glc
# In short: as §1
# [22] = target: Neu5Ac(a2-8)Neu5Ac(a2-3)[GalNAc(b1-4)]Gal(b1-4)Glc
# In short: as §1
# [23] = target: Neu5Ac(a2-8)Neu5Ac(a2-8)Neu5Ac
# In short: as §1
# [24] = target: Neu5Ac(a2-8)Neu5Ac(a2-8)Neu5Ac(a2-3)Gal(b1-4)Glc
# In short: as §1
# [25] = target: Neu5Ac(a2-8)Neu5Ac(a2-8)Neu5Ac(a2-3)[Gal(b1-3)GalNAc(b1-4)]Gal(b1-4)Glc
# In short: as §1
# [26] = target: Neu5Ac(a2-8)Neu5Ac(a2-8)Neu5Ac(a2-3)[GalNAc(b1-4)]Gal(b1-4)Glc
# In short: as §1
# [27] = target: Neu5Ac(a2-8)Neu5Ac(a2-8)Neu5Ac(a2-8)Neu5Ac(a2-3)[GalNAc(b1-4)]Gal(b1-4)Glc
# In short: as §1
# [28] = target: Neu5Ac(a2-8)Neu5Gc(a2-3)Gal(b1-4)GlcNAc
# In short: as §1
# [29] = target: Neu5Ac(b2-6)Gal(b1-4)GlcNAc
# In short: as §1
# [30] = target: Neu5Ac(b2-6)GalNAc
# In short: as §1
# [31] = target: Neu5Ac9Ac(a2-3)Gal(b1-3)GlcNAc
# In short: as §1
# [32] = target: Neu5Ac9Ac(a2-3)Gal(b1-4)GlcNAc
# In short: as §1
# [33] = target: Neu5Ac9Ac(a2-6)Gal(b1-4)GlcNAc
# In short: as §1
# [34] = target: Neu5Gc(a2-3)Gal(b1-3)GlcNAc
# In short: as §1
# [35] = target: Neu5Gc(a2-3)Gal(b1-3)[Fuc(a1-4)]GlcNAc
# In short: as §1
# [36] = target: Neu5Gc(a2-3)Gal(b1-4)Glc
# In short: as §1
# [37] = target: Neu5Gc(a2-3)Gal(b1-4)GlcNAc
# In short: as §1
# [38] = target: Neu5Gc(a2-3)Gal(b1-4)GlcNAc(b1-3)Gal(b1-4)GlcNAc(b1-2)Man(a1-3)[Neu5Gc(a2-3)Gal(b1-4)GlcNAc(b1-3)Gal(b1-4)GlcNAc(b1-2)Man(a1-6)]Man(b1-4)GlcNAc(b1-4)GlcNAc
# In short: as §1
# [39] = target: Neu5Gc(a2-3)Gal(b1-4)[Fuc(a1-3)]GlcNAc
# In short: as §1
# [40] = target: Neu5Gc(a2-6)Gal(b1-4)GlcNAc
# In short: as §1
# [41] = target: Neu5Gc(a2-6)GalNAc
# In short: as §1
# [42] = target: Neu5Gc(a2-8)Neu5Ac(a2-3)Gal(b1-4)GlcNAc
# In short: as §1
# [43] = target: Neu5Gc(a2-8)Neu5Gc(a2-3)Gal(b1-4)GlcNAc
# In short: as §1
# [44] = target: Neu5Gc(a2-8)Neu5Gc(a2-3)Gal(b1-4)GlcNAc(b1-3)Gal(b1-4)GlcNAc
# In short: as §1
# [45] = target: Neu5Gc(a2-8)Neu5Gc(a2-6)Gal(b1-4)GlcNAc
# In short: as §1
# [46] = target: Neu5Gc(b2-6)Gal(b1-4)GlcNAc
# In short: as §1
binder,measurement,setting,value
diCBM40 CPF071 (Clostridium perfringens) (protein) MAHHHHHHVGTGSNDDDDKSPDPMLSSLGEYKDINLESSNASNITYDLEKYKNLDEGTIVVRFNSKDSKIQSLLGISNSKTKNGYFNFYVTNSRVGFELRNQKNEGNTQNGTENLVHMYKDVALNDGDNTVALKIEKNKGYKLFLNGKMIKEVKDTNTKFLNNIENLDSAFIGKTNRYGQSNEYNFKGNIGFMNIYNEPLGDDYLLSKTGETKALNGSELGSGSGLSSLGEYKDINLESSNASNITYDLEKYKNLDEGTIVVRFNSKDSKIQSLLGISNSKTKNGYFNFYVTNSRVGFELRNQKNEGNTQNGTENLVHMYKDVALNDGDNTVALKIEKNKGYKLFLNGKMIKEVKDTNTKFLNNIENLDSAFIGKTNRYGQSNEYNFKGNIGFMNIYNEPLGDDYLLSKTGETK,glycan array binding signal (z-score),[1],-0.078
same,glycan array binding signal (z-score),[2],-0.291
same,glycan array binding signal (z-score),[3],-0.188
same,glycan array binding signal (z-score),[4],-0.154
same,glycan array binding signal (z-score),[5],-0.227
same,glycan array binding signal (z-score),[6],-0.197
same,glycan array binding signal (z-score),[7],-0.312
same,glycan array binding signal (z-score),[8],-0.316
same,glycan array binding signal (z-score),[9],-0.241
same,glycan array binding signal (z-score),[10],0.551
same,glycan array binding signal (z-score),[11],-0.26
same,glycan array binding signal (z-score),[12],-0.326
same,glycan array binding signal (z-score),[13],-0.255
same,glycan array binding signal (z-score),[14],-0.209
same,glycan array binding signal (z-score),[15],-0.17
same,glycan array binding signal (z-score),[16],-0.046
same,glycan array binding signal (z-score),[17],-0.2
same,glycan array binding signal (z-score),[18],-0.286
same,glycan array binding signal (z-score),[19],-0.24
same,glycan array binding signal (z-score),[20],-0.076
same,glycan array binding signal (z-score),[21],0.004
same,glycan array binding signal (z-score),[22],-0.321
same,glycan array binding signal (z-score),[23],0.019
same,glycan array binding signal (z-score),[24],0.209
same,glycan array binding signal (z-score),[25],-0.251
same,glycan array binding signal (z-score),[26],-0.278
same,glycan array binding signal (z-score),[27],-0.326
same,glycan array binding signal (z-score),[28],-0.295
same,glycan array binding signal (z-score),[29],-0.286
same,glycan array binding signal (z-score),[30],-0.097
same,glycan array binding signal (z-score),[31],1.26
same,glycan array binding signal (z-score),[32],2.9
same,glycan array binding signal (z-score),[33],-0.299
same,glycan array binding signal (z-score),[34],1
same,glycan array binding signal (z-score),[35],0.647
same,glycan array binding signal (z-score),[36],-0.041
same,glycan array binding signal (z-score),[37],3.31
same,glycan array binding signal (z-score),[38],6.28
same,glycan array binding signal (z-score),[39],0.856
same,glycan array binding signal (z-score),[40],-0.146
same,glycan array binding signal (z-score),[41],-0.044
same,glycan array binding signal (z-score),[42],-0.252
same,glycan array binding signal (z-score),[43],-0.326
same,glycan array binding signal (z-score),[44],-0.306
same,glycan array binding signal (z-score),[45],0.22
same,glycan array binding signal (z-score),[46],-0.006
